# Assay results reported in PubChem BioAssay (NCATS).
# Inconclusive means that the source gave no clear call. Such entries were picked first, then a sample of the others. For part of these data: Where the call is inconclusive, the potency comes from a doubtful curve fit. Calls of active or inactive are those of the source. Unless noted, calls follow the shape of the dose curve; as a rule, active = well fitted curve in the direction sought with a large enough effect; inconclusive = small, poorly fitted or top-dose-only effect, or another doubt; inactive = no such curve, though single readings can be large; an effect the other way counts as inactive or inconclusive.
# Assays:
# [1] = qHTS Assay for Identification of Small Molecule Agonists for Hypoxia Response Element Signaling Pathway (AID 914; active = well fitted activation curve with a large enough effect in the signal ratio, with a control signal flat, not every such curve was filed as active; inconclusive = small, poorly fitted or top-dose-only effect, or effect the other way, or a change in a side signal; the % refers to the signal ratio; also: potency is read from the fitted curve at half-maximal effect; as to activation: top concentration of the series differs between compounds; % of control where 0% means no effect); conditions: ME-180 HRE-bla reporter, beta-lactamase ratio, CoCl2, 17 h; activation: hits give high values
# In short: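 AC50 values come from titration-series %Activity, taken as the 460/530nm ratio of CCF4 fluorescence (excitation 405nm). CellSensor HRE-bla ME-180 cells were treated 17 hours at 37 C with compound plus an EC50 level of CoCl2.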
# [2] = target: Dual specificity protein kinase CLK4 (Homo sapiens) (UniProt Q9HAZ1); test: qHTS Assay for Inhibitors of CDC-like Kinase 4 (Kinase-Glo Assay) (AID 1770); also: nearly all actives have a fitted effect of over 65% in size; also: potency is read from the fitted curve at half-maximal effect
# In short: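 Clk4 25 nM, RS peptide 100 uM, ATP 1 uM, pH 7.5 Tris, 10 mM MgCl2, 2.5 mM DTT; 4.5 h RT; ATP depletion read by Kinase-Glo luminescence.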
# [3] = Stat Signaling Pathway (AID 446; active = well fitted curve in either direction with a large enough effect, not every such curve was filed as active; inconclusive = small, poorly fitted or top-dose-only effect, or another doubt;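 also: ME-180 cervical cancer cells given 40 pM IL-6 alongside compound; SIE-controlled beta-lactamase reporter measured as 460/530 nm FRET emission ratio; top concentration of the series differs between compounds; % is scaled to controls: 0 for no effect and ±100 for the full control effect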); conditions: ME-180 SIE beta-lactamase reporter, IL-6 stimulated, 5 h; at 7.69 µM (top of the series) unless noted
# In short: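 ME-180 SIE-bla cells; overnight plating; cpd + IL-6 40 pM, 5 h, 37 C; LiveBLAzer 2.5 h RT; 460/530 nm emission ratio. Normalized to 300 pM IL-6 and 125 nM JAK inhibitor controls.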
# [4] = target: Glucocorticoid receptor (Homo sapiens) (UniProt P04150); test: GR-EFC Redistribution (AID 451; calls by dose curve; also: potency is read from the fitted curve at half-maximal effect); conditions: CHO-K1 GR-EFC translocation, beta-gal luminescence, 2 h
# In short: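 Translocation of GR-ED fusion to nuclear EA restores b-gal, read by luminescence after 1 h room-temperature detection. Engineered CHO-K1 biosensor cells, 1,000/well, exposed 2 h at 37 C to titrations up to 46 uM final.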
# [5] = target: Cytochrome P450 2D6 (Homo sapiens) (UniProt P10635); test: qHTS Assay for Inhibitors and Substrates of Cytochrome P450 2D6 (AID 891); conditions: recombinant CYP2D6, luciferin-ME EGE luminescence; activity change, negative = inhibition: at 57.1 µM (top of the series);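 also: luciferin methyl ether substrate demethylated by CYP2D6 with NADPH regeneration; potency is read from the fitted curve at half-maximal effect; nearly all actives have a fitted effect of over 60% in size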
# In short: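 Human CYP2D6 (5 nM) with 30 uM Luciferin-ME EGE (at Km) in 100 mM KPO4, compound preincubated 10 min, then NADPH regeneration system for 60 min at room temperature. Luciferin read by luminescence; normalized to 1.43 uM quinidine.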
# [6] = target: Ubiquitin carboxyl-terminal hydrolase 1 (Homo sapiens) (UniProt O94782); test: Inhibitors of USP1/UAF1: Pilot qHTS (AID 504865); also: potency is read from the fitted curve at half-maximal effect;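 also: rhodamine fluorescence freed from ubiquitin-rhodamine substrate followed over time; nearly all actives have a fitted effect of over 35% in size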
# In short: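 Enzyme-free wells gave the negative control, while test wells held 1nM USP1/UAF1 preincubated with compound for 15 min at room temperature. Ub-Rho at 150nM final started the reaction, and fluorescence at 480/540 nm was recorded kinetically.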
# [7] = target: Mitogen-activated protein kinase 10 (Mus musculus) (UniProt Q61831); test: JNK3 AlphaScreen Assay (AID 530; active = well fitted curve in either direction with a large enough effect, not every such curve was filed as active; inconclusive = small, poorly fitted or top-dose-only effect, or another doubt;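 also: kinase came from lysate of stimulated human HepG2 cells; signal reports phosphorylation of biotinylated GST-cJun 1-79 at Ser73 with 10 µM ATP; % is scaled to controls: 0 for no effect and ±100 for the full control effect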); conditions: JNK3 lysate, c-Jun phosphorylation; activity change, negative = inhibition: at 57.1 µM (top of the series)
# In short: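 Compound titrations were preincubated 15 minutes at room temperature with substrate, antibody and pre-activated JNK3-containing HepG2 lysate. Reactions were started with 10 uM ATP and stopped with EDTA-containing bead buffer for AlphaScreen detection.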
# [8] = target: Glucocorticoid receptor (Homo sapiens) (UniProt P04150); test: GR-GFP Redistribution (AID 450;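 active = compounds whose dose series gives a full or clear partial fitted curve of increased nuclear translocation; inconclusive = weak partial curve or effect only at the top dose; inactive = no dose-dependent translocation response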; also: potency is read from the fitted curve at half-maximal effect); conditions: U2OS GR-GFP nuclear translocation, laser cytometry, 2 h
# [9] = target: 3',5'-cyclic-AMP phosphodiesterase 4B (Homo sapiens) (UniProt Q07343); test: qHTS Assay for Inhibitors of PDE-IV (AID 607; active = well fitted activation curve with a large enough effect in the main read-out, with a control signal flat, not every such curve was filed as active; inconclusive = small, poorly fitted or top-dose-only effect, or effect the other way, or a change in a side signal; also: potency is read from the fitted curve at half-maximal effect; as to activation (PDE inhibition): % of control where 0% means no effect); conditions: HEK293 ACTOne CNG channel cells, membrane potential fluorescence; activation (PDE inhibition): at 22.9 µM (top of the series)
# In short: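 ACTOne HEK293 cells carry a modified cAMP-gated CNG channel and express endogenous PDE4; plated 1000 cells/well, compounds up to 22.9 uM final. Membrane-potential dye fluorescence (ex 535/em 590) was read; parental cells received 10 uM forskolin + 100 uM RO 20-1724.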
# [10] = target: Cytochrome P450 2C9 (Homo sapiens) (UniProt P11712); test: qHTS Assay for Inhibitors and Substrates of Cytochrome P450 2C9 (AID 883); conditions: recombinant CYP2C9, luciferin-H luminescence, 60 min; activity change, negative = inhibition: at 57.1 µM (top of the series); also: potency is read from the fitted curve at half-maximal effect; nearly all actives have a fitted effect of over 60% in size
# In short: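 Turnover of Luciferin-H (100uM, KM) by 10nM human CYP2C9 was measured over 60 min at 37C with NADPH regeneration; inhibitors and some substrates reduce luminescence. Data normalized to sulphaphenazole 57uM.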
# [11] = target: Cytochrome P450 3A4 (Homo sapiens) (UniProt P08684); test: qHTS Assay for Inhibitors and Substrates of Cytochrome P450 3A4 (AID 884); also: potency is read from the fitted curve at half-maximal effect; nearly all actives have a fitted effect of over 50% in size
# In short: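 20 nM human CYP3A4 with 25 uM Luciferin-PPXE (at KM) in 200 mM KPO4, preincubated 10 min with compound; NADPH regeneration started a 60 min RT reaction. Luciferin detected by luminescence, normalized to 57 uM ketoconazole as full inhibition.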
# [12] = Counterscreen for APE1 Inhibitors: Fluorescent Dye Displacement Assay (AID 2564);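 also: loss of thiazole orange fluorescence as the dye is displaced from duplex DNA; potency is read from the fitted curve at half-maximal effect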
# In short: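 Thiazole Orange displacement from dsDNA: 250 nM ThO with 50 nM TAMRA-labelled abasic-site (tetrahydrofuran) duplex in 50 mM Tris-HCl pH7.5, 50mM NaCl, 2 mM MgCl2, 0.01% Tween-20. Loss of endpoint fluorescence (ex 480 nm, em 540 nm) flags DNA binders.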
# [13] = target: Cytochrome P450 3A4 (Homo sapiens) (UniProt P08684); test: qHTS Assay for Activators of Cytochrome P450 3A4 (AID 885); also: nearly all actives have a fitted effect of over 65% in size; also: potency is read from the fitted curve at half-maximal effect
# In short: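 20nM CYP3A4 + 25uM Luciferin-PPXE (=KM), 200mM KPO4; cpd 10 min RT; NADPH regen, 60 min RT; stop w/ detection buffer, 20 min; luminescence. Normalized to 57 uM ketoconazole.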
# [14] = target: Cytochrome P450 1A2 (Homo sapiens) (UniProt P05177); test: p450-cyp1a2 (AID 410; calls by dose curve; also: potency is read from the fitted curve at half-maximal effect)
# In short: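 Luminescent readout of luciferin formed from Luciferin-ME by human CYP1A2; data normalized against complete inhibition by 57 uM furafylline. Enzyme 20nM, substrate 100uM at Km, 100mM KPO4 buffer, 60 min reaction at room temperature.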
# [15] = target: Dual specificity protein kinase CLK4 (Homo sapiens) (UniProt Q9HAZ1); test: qHTS Assay for Inhibitors of CDC-like Kinase 4 (ADP-Glo Assay) (AID 1771); also: nearly all actives have a fitted effect of over 70% in size; also: potency is read from the fitted curve at half-maximal effect
# In short: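 Luminescence from ADP-Glo reports ADP produced by 25 nM Clk4 acting on 100 uM RS repeat peptide with 1 uM ATP over 1 hr at room temperature; residual ATP is depleted before ADP is converted to ATP for detection.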
# [16] = NFAT Signaling Pathway (AID 444; active = well fitted curve in either direction with a large enough effect, not every such curve was filed as active; inconclusive = small, poorly fitted or top-dose-only effect, or another doubt;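 also: carbachol stimulus at about its EC50 of 1 µM final; % is scaled to controls: 0 for no effect and ±100 for the full control effect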); conditions: Jurkat NFAT-bla M1, carbachol, beta-lactamase ratio, 5 h; at 17.2 µM (top of the series) unless noted
# In short: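 Read-out: CCF4 FRET ratio (460 nm/530 nm) after 1 h RT dye loading, used for %activity and AC50 from titration series. Cells: Jurkat NFAT-β-lactamase/M1 line, treated with compound plus 1 uM carbachol for 5 h, 37 °C.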
# [17] = target: Vitamin D3 receptor (Homo sapiens) (UniProt P11473); test: qHTS for Inhibitors of the vitamin D receptor (VDR): Hit Validation in Primary Screen (AID 602199); conditions: VDR-coactivator inhibition assay, qHTS confirmation; also: potency is read from the fitted curve at half-maximal effect
# In short: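 With 800 nM VDR and 5 uM LG19078 agonist present, compounds were incubated 2 h at ambient temperature with Alexa 647-labelled SRC2-3. Displacement was read as polarization at 620/688 nm.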
# [18] = target: Vitamin D3 receptor (Homo sapiens) (UniProt P11473); test: qHTS for Inhibitors of the vitamin D receptor (VDR): Hit Validation using a Fluorescein Assay (AID 602200)
# In short: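 Compounds added to VDR ligand-binding domain (1.5 uM) with agonist LG19078 (5 uM) and 5 nM SRC2-3 fluorescein peptide, final concentrations. After 2 h at ambient temperature, polarization of fluorescein emission (Ex 495 nm/Em 520 nm) measured.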
# [19] = qHTS for Inhibitors of the vitamin D receptor (VDR): Hit Validation using a Texas Red Assay (AID 602201); also: potency is read from the fitted curve at half-maximal effect
# In short: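 After a 2-hour room-temperature incubation, polarization of Texas-Red emission was read (Ex 595 nm/Em 615 nm). Final mix contained 7 nM Texas Red, 1.5 uM VDR-LBD and LG19078.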
# [20] = AP1 Signaling Pathway (AID 357; active = well fitted curve in either direction with a large enough effect, not every such curve was filed as active; inconclusive = small, poorly fitted or top-dose-only effect, or another doubt; also: top concentration of the series differs between compounds; % is scaled to controls: 0 for no effect and ±100 for the full control effect); conditions: ME-180 (cervical carcinoma) AP-1-bla reporter, EGF-induced, beta-lactamase ratio, 5 h; at 17.2 µM (top of the series) unless noted
# In short: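 AP-1-bla ME-180 cells with beta-lactamase reporter under AP-1 response element, stimulated with EC50 EGF; compounds titrated, 5 hours at 37 degrees Celsius. CCF4 read at 460/530 nm ratio; positive and negative modulators judged by AC50.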
# Tags tell the direction and shape of the fitted curve or compound fluorescence and quenching.
# Sequence of UniProt Q9HAZ1 (Q9HAZ1 whole entry, looked up): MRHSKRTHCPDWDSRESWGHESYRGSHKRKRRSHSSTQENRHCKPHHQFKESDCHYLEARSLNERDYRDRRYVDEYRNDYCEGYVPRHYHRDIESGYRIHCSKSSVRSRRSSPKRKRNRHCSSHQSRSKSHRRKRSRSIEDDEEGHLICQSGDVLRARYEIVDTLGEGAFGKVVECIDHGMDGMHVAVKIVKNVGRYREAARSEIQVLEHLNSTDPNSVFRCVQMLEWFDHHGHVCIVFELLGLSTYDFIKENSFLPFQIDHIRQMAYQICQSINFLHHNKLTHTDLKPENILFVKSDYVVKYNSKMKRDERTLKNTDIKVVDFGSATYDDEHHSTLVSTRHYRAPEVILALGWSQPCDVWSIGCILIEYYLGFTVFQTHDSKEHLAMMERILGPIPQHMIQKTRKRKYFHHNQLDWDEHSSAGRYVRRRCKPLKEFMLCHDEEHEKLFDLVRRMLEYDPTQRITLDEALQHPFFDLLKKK
# Sequence of UniProt O94782 (O94782 whole entry, looked up): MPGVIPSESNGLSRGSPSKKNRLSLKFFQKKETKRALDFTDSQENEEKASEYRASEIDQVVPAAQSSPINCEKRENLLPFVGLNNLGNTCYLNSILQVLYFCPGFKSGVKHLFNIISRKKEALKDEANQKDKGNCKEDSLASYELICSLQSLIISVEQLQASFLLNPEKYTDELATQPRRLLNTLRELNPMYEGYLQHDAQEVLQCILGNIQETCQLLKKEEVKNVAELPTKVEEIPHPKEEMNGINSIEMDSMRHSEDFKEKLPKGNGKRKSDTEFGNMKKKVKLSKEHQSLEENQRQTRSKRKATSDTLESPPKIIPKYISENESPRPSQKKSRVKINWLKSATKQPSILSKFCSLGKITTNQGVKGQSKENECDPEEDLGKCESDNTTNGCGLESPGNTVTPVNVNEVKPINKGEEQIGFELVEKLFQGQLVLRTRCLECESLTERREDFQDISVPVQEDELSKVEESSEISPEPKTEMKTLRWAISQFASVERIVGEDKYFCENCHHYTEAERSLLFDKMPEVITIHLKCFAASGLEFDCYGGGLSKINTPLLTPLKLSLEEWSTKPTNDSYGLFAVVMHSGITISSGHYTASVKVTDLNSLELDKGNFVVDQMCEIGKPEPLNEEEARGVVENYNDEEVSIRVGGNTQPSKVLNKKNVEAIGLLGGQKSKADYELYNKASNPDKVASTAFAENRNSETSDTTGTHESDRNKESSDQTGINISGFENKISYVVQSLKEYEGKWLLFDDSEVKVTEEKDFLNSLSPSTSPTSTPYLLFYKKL
# Sequence of UniProt Q07343 (Q07343 whole entry, looked up): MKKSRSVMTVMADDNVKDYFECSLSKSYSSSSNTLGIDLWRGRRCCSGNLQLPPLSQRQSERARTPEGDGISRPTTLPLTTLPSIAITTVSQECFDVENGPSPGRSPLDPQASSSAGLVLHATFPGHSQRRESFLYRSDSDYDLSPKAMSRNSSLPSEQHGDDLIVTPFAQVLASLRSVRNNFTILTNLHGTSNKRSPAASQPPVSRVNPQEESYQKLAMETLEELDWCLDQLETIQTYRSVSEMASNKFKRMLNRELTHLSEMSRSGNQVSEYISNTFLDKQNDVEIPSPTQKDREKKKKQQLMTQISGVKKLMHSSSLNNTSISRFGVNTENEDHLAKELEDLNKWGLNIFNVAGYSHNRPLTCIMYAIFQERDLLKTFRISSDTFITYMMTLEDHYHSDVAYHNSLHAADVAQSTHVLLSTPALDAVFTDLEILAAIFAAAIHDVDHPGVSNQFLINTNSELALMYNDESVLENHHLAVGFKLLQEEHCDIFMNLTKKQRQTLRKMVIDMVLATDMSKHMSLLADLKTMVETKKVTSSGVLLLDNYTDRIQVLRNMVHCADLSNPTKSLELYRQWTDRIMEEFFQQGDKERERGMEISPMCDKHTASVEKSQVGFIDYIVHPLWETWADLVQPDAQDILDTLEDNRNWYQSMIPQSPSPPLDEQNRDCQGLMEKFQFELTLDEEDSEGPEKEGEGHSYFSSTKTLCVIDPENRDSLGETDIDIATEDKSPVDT
# Sequence of UniProt P08684 (P08684 whole entry, looked up): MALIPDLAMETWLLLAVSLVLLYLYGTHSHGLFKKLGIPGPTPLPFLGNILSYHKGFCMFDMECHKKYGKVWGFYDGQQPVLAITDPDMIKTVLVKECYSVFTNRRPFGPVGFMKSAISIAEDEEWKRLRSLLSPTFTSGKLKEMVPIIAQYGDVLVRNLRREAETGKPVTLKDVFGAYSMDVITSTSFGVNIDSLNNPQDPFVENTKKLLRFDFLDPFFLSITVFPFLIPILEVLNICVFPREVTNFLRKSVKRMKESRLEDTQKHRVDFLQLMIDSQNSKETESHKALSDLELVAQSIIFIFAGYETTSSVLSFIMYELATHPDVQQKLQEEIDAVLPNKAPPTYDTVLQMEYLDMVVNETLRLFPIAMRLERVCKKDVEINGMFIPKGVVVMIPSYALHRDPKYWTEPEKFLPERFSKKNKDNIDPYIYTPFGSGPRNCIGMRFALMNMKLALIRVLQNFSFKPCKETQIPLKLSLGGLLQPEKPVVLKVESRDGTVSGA
# Sequence of UniProt P10635 (P10635 whole entry, looked up): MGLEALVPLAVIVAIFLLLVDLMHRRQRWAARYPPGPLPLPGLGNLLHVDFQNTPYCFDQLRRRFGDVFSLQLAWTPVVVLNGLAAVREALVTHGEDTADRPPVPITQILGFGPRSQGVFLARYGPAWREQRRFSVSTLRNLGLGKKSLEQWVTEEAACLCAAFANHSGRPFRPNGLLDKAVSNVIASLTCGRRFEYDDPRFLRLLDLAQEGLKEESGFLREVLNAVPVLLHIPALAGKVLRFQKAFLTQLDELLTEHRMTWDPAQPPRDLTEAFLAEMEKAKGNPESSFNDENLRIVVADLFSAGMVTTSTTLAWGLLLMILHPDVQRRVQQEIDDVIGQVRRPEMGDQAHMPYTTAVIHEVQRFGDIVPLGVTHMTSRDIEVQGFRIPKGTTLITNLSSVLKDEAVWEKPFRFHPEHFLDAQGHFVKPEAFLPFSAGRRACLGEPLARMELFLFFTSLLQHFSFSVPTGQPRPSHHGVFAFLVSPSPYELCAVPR
# Sequence of UniProt P04150 (P04150 whole entry, looked up, the tested form may be a part): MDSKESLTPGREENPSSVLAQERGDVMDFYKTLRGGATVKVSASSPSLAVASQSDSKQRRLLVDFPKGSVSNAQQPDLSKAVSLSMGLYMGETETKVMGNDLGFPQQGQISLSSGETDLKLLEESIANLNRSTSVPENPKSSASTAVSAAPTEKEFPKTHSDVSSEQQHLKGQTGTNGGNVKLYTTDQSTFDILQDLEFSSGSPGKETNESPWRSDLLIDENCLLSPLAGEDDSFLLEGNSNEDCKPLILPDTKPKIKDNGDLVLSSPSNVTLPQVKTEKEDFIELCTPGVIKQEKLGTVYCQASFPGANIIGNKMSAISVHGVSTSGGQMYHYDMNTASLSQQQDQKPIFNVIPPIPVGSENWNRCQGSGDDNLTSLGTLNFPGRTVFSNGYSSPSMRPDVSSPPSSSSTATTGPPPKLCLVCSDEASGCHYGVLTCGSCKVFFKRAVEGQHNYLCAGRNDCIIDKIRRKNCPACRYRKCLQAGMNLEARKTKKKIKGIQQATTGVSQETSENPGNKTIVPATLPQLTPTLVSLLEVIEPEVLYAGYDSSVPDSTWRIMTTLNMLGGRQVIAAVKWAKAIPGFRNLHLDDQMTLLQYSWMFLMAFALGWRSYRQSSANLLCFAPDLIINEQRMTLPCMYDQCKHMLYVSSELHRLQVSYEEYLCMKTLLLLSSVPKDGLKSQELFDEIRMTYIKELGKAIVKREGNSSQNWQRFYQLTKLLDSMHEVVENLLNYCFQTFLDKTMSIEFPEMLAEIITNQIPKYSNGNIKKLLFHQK
# Sequence of UniProt P11712 (P11712 whole entry, looked up): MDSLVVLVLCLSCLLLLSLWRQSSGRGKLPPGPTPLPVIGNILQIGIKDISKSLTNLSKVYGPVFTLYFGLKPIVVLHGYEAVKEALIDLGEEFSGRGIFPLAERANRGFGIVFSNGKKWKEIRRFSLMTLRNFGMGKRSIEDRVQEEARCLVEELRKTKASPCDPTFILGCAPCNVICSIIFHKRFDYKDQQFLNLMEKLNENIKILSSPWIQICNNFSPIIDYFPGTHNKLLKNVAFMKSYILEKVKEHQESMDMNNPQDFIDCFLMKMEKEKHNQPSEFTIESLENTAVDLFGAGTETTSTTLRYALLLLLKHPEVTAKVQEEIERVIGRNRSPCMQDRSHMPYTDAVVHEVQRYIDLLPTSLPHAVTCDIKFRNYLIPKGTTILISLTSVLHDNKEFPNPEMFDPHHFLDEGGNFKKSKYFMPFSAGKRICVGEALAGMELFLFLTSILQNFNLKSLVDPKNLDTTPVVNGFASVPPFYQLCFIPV
# Sequence of UniProt P11473 (P11473 whole entry, looked up, the tested form may be a part): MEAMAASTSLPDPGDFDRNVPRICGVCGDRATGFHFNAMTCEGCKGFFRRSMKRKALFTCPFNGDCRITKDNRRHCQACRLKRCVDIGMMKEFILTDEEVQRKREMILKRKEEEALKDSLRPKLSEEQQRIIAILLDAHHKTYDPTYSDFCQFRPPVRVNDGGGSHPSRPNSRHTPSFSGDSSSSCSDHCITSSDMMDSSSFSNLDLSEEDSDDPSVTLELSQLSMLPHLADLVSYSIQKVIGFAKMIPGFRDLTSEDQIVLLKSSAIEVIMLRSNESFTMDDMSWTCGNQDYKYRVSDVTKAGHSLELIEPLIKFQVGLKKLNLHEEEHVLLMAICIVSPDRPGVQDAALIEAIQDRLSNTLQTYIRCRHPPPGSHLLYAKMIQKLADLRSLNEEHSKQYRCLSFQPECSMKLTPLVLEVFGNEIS
smiles,measurement,setting,value
COCCn1c(=O)c(CCc2ccccc2)nc2cnc(N3CCOCC3)nc21,activation,[1],inconclusive: -23.3%
same,Potency,[2],inactive
COCCn1c(=O)c(C)nc2cnc(Oc3ccc(OC)cc3)nc21,"activity, negative = inhibition",[3],inactive: -8.21%
same,Potency,[4],inconclusive: > 46 µM [single point]
same,Potency,[2],inactive
O=c1c(-c2ccc(F)cc2)nc2cnc(Oc3cccc(Cl)c3)nc2n1C1CC1,"activity, negative = inhibition",[3],inactive: -8.35%
same,Potency,[2],inactive
CCNc1ncc2nc(-c3cn(C)c4ccccc34)c(=O)n(-c3ccc(OC)cc3)c2n1,activation,[1],inactive: -6.54%
same,Potency,[2],"inconclusive: 28.2 µM [falling, partial curve]"
CCNc1ncc2nc(-c3ccc(F)cc3)c(=O)n(CCOC)c2n1,Potency,[5],"inconclusive: 3.98 µM [inhibitor, partial curve]"
same,Potency,[2],inactive
same,Potency,[6],inactive
CN(C)c1ncc2nc(-c3ccc(Cl)cc3)c(=O)n(C[C@H]3CCCO3)c2n1,Potency,[7],inactive
same,Potency,[5],"inconclusive: 1.58 µM [inhibitor, partial curve]"
same,activation,[1],inconclusive: 33.4%
same,Potency,[2],inactive
COc1ccc(Oc2ncc3nc(-c4cn(C)c5ccccc45)c(=O)n(C4CC4)c3n2)cc1,Potency,[8],inconclusive: 7.39 µM [single point]
same,Potency,[2],inactive
CN(C)c1ncc2nc(-c3ccc(F)cc3)c(=O)n(C[C@H]3CCCO3)c2n1,"activity, negative = inhibition",[3],inconclusive: 33.8% [activator]
same,Potency,[4],inconclusive: > 46 µM [single point]
same,Potency,[5],"inconclusive: 1.26 µM [inhibitor, full curve]"
same,Potency,[1],"inconclusive: 3.16 µM [activator, single point]"
same,Potency,[2],inactive
CCNc1ncc2nc(-c3cn(C)c4ccccc34)c(=O)n(C)c2n1,Potency,[9],"inconclusive: 3.16 µM [activator, single point]"
same,Potency,[1],"inconclusive: 3.98 µM [inhibitor, single point]"
same,Potency,[2],inactive
CN(Cc1ccco1)c1ccnc(-c2ccccc2C(F)(F)F)n1,Potency,[2],inactive
same,Potency,[6],"inconclusive: 39.8 µM [inhibitor, single point]"
COc1cccc(Nc2ncc3nc(-c4cn(C)c5ccccc45)c(=O)n(C[C@H]4CCCO4)c3n2)c1,"activity, negative = inhibition",[3],inactive: 8.32%
same,Potency,[2],inactive
same,Potency,[6],"inconclusive: 4.47 µM [inhibitor, single point]"
Clc1ccccc1-c1nc(NCc2cccs2)c2ccccc2n1,Potency,[10],"inconclusive: 0.794 µM [inhibitor, single point]"
same,Potency,[11],active: 6.31 µM
same,Potency,[12],"inconclusive: 20 µM [inhibitor, partial curve]"
CCNc1ncc2nc(-c3cn(C)c4ccccc34)c(=O)n(-c3ccccc3)c2n1,Potency,[11],"inconclusive: 6.31 µM [inhibitor, partial curve]"
same,Potency,[13],inactive
CN(C)c1ncc2nc(-c3ccc(Cl)cc3)c(=O)n(Cc3ccc(F)cc3)c2n1,Potency,[13],"inconclusive: 2.51 µM [activator, full curve, poor fit]"
COc1cccc(Cn2c(=O)c(-c3cn(C)c4ccccc34)nc3cnc(N4CCOCC4)nc32)c1,Potency,[14],inconclusive: 25.1 µM [decreasing]
same,Potency,[15],inactive
Cc1ccccc1-c1nc(N(C)Cc2ccco2)c2ccccc2n1,"activity change, negative = inhibition",[16],inactive: -24% [at 7.69 µM]
same,Potency,[9],"inconclusive: 7.94 µM [rising, partial curve]"
same,Potency,[15],active: 28.2 µM
same,Potency,[6],active: 28.2 µM
Cc1ccccc1-c1ccc2ncnc(NC3CC3)c2c1,"activity, negative = inhibition",[3],inconclusive: -33.9% [inhibitor]
same,Potency,[9],"inconclusive: 12.6 µM [activator, partial curve]"
same,Potency,[15],active: 7.08 µM
CCNc1ncc2nc(C)c(=O)n(CCC#N)c2n1,Potency,[9],inactive
same,Potency,[15],"inconclusive: 25.1 µM [falling, single point]"
COc1ccccc1CNc1cc(-c2ccoc2)ncn1,Potency,[15],"inconclusive: 28.2 µM [falling, single point]"
same,Potency,[17],"inconclusive: 12.6 µM [inhibitor, partial curve]"
same,Potency,[18],inactive
same,Potency,[19],"inconclusive: 17.8 µM [inhibitor, partial curve]"
CN1CCN(c2ncncc2-c2ccc(C(=O)N(C)C)cc2)CC1,"activity, negative = inhibition",[3],inconclusive: -56.1% [inhibitor]
same,Potency,[15],inactive
COc1ccc(-c2nc3cnc(OC)nc3n(CCc3ccccc3)c2=O)cc1,"activity change, negative = inhibition",[20],inconclusive: 39.4% [activator] [at 7.69 µM]
same,Potency,[9],"inconclusive: 12.6 µM [activator, single point]"
same,Potency,[10],"inconclusive: 6.31 µM [inhibitor, full curve]"
same,Potency,[15],inactive
Cc1noc(C)c1-c1cc(NCc2cccs2)ncn1,Potency,[15],active: 10 µM
same,Potency,[6],inactive
Cc1noc(C)c1-c1nc(NCCN2CCOCC2)c2ccccc2n1,Potency,[14],active: 2.51 µM
same,"activity change, negative = inhibition",[16],inconclusive: 30.9% [activator] [at 7.69 µM]
same,Potency,[15],"inconclusive: 31.6 µM [falling, single point]"
